Results on 24 compounds are retold here after publication PMC4336329 (PLoS ONE, 2015).

In all, about 310,000 compounds went through this assay and about 2,200 (0.71%) showed an effect of 50% or more. Effects have a minus sign here. Some of the results follow.

The target in the assay is human ether-à-go-go-related gene (hERG) potassium channel (human, UniProt Q12809). As to the kind of experiment: primary screen, population patch clamp on CHO cells stably expressing hERG.
Chain of human ether-à-go-go-related gene (hERG) potassium channel (Q12809 whole entry, looked up): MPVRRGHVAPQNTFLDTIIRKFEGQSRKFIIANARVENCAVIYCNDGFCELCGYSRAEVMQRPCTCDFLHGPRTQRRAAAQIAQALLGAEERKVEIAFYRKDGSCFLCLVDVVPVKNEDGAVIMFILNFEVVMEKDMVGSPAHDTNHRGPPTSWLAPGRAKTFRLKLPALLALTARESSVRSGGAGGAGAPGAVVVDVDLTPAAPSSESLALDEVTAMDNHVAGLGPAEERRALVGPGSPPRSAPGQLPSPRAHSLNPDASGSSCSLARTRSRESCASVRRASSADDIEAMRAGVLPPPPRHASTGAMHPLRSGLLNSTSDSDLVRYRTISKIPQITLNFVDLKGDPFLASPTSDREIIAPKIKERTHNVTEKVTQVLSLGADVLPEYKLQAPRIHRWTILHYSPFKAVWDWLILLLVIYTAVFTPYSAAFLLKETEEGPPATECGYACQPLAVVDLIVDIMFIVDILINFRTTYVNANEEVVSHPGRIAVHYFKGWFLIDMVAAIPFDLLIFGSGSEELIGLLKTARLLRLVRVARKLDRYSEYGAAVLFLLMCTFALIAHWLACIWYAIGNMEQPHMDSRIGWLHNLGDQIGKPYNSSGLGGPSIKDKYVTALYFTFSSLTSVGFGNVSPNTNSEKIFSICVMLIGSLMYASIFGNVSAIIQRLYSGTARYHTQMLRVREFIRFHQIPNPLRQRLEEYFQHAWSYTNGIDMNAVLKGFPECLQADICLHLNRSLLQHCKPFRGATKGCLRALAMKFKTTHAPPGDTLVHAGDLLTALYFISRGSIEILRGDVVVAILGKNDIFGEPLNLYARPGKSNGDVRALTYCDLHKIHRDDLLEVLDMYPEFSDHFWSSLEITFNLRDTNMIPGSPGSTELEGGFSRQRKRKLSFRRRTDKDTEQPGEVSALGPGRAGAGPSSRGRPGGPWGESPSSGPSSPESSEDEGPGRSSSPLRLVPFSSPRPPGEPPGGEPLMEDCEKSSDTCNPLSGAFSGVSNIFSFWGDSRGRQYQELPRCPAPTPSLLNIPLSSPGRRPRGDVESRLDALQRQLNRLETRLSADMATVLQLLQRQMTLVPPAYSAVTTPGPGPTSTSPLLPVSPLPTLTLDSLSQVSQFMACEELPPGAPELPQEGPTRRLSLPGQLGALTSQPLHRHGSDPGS
For the compound `Cc1cc(C)n(CCc2nc(-c3ccc(C)o3)cs2)n1`, the “hERG current change (%, negative = inhibition) at 1uM” value is -1.59%.

On to `CSc1nc(C)c(CCOC(=O)c2cccc(Cl)c2)c(=O)[nH]1`, for which the “hERG current change (%, negative = inhibition) at 1uM” value is reported as 5.59%.

Consider `COc1ccc(C(=O)Nc2ccc3c(c2)nc(CCNC(=O)c2ccco2)n3C)cc1`, for which the “hERG current change (%, negative = inhibition) at 1uM” value is on record as 5.77%.

On to `CC#CC(=O)N1CCC(CCc2ccccc2)(C(=O)OCC)CC1`, for which the “hERG current change (%, negative = inhibition) at 1uM” value was -18.4%.

As to `Cc1ccc(S(=O)(=O)N(CC(=O)N2CCc3ccccc3C2)c2ccc(Cl)c(Cl)c2)cc1`, the “hERG current change (%, negative = inhibition) at 1uM” value is on record as -1.2%.

On to `COc1ccc(OC)c(-c2cc(C(=O)Nc3c(C)nn(Cc4ccccc4C)c3C)no2)c1`, for which the “hERG current change (%, negative = inhibition) at 1uM” value came to 6.03%.

With `CN(C)c1ccc(-c2noc(C3CCN(C(=O)Nc4ccc(Cl)cc4)CC3)n2)cc1`, the “hERG current change (%, negative = inhibition) at 1uM” value was 11.4%.

With `O=C(NCCCN1CCCC1=O)c1cc(=O)c2ccccc2o1`, the “hERG current change (%, negative = inhibition) at 1uM” value is listed as 8.89%.

For `O=C(COC(=O)C1CC2CCCC(C1)C2=O)Nc1ccc(Cl)cn1` (stereo not drawn), the “hERG current change (%, negative = inhibition) at 1uM” value is 5.22%.

As to `O=C(COC(=O)c1ccccc1C(=O)c1ccccc1)NCCc1ccc(Cl)cc1Cl`, the “hERG current change (%, negative = inhibition) at 1uM” value amounted to 13.4%.

Turning to `COC(=O)CSc1nc2c(c(=O)n(C)c(=O)n2C)n1CCCc1ccccc1`, the “hERG current change (%, negative = inhibition) at 1uM” value is recorded as -1.18%.

`CC(C)CCNC(=O)c1csc2c1CCCCC2`: the “hERG current change (%, negative = inhibition) at 1uM” value amounted to 8.77%.

On to `O=C(CN(C(=O)CNS(=O)(=O)c1ccc(F)cc1)c1ccccc1F)NCc1ccco1`, for which the “hERG current change (%, negative = inhibition) at 1uM” value is given as -7.47%.

Take `Cn1c(SCC(=O)N2c3ccccc3Sc3ccccc32)nc2ccccc21`: the “hERG current change (%, negative = inhibition) at 1uM” value worked out at 8.03%.

As for `CCc1ccc(NC(=O)COC(=O)CCc2nc3cc(S(=O)(=O)N(CC)CC)ccc3n2C)cc1`, the “hERG current change (%, negative = inhibition) at 1uM” value stood at 4.7%.

Regarding `COc1ccc(C(=O)Nc2ccc(NC(=O)c3ccco3)c(Cl)c2)cc1OC`, the “hERG current change (%, negative = inhibition) at 1uM” value is given as 7.4%.

As for `c1ccc(N=C(c2cccs2)N2CCOCC2)cc1`, the “hERG current change (%, negative = inhibition) at 1uM” value is given as 13.1%.

`COc1ccccc1C(=O)OC(C)CN1CCN(C)CC1.Cl` (stereo not drawn): the “hERG current change (%, negative = inhibition) at 1uM” value worked out at 10.7%.

In the case of `NC(=O)c1cc(-c2csc(-c3cccnc3)n2)ccc1O`, the “hERG current change (%, negative = inhibition) at 1uM” value was 9.86%.

In the case of `O=C(NCCN1CCOCC1)Nc1ccc(F)cc1`, the “hERG current change (%, negative = inhibition) at 1uM” value is given as 5.76%.

Turning to `CC1(C)CCc2cc(-c3ccn(S(=O)(=O)c4ccccc4Cl)n3)ccc2O1`, the “hERG current change (%, negative = inhibition) at 1uM” value is given as 10.4%.

As for `Cn1ccc(NC(=O)c2ccc(Cl)cc2Cl)n1`, the “hERG current change (%, negative = inhibition) at 1uM” value was found to be 7.95%.

For `CCOc1ccc(C(=O)CCNC(Cc2cnc[nH]2)C(=O)O)cc1` (stereo not drawn), the “hERG current change (%, negative = inhibition) at 1uM” value came out at 7.32%.

As to `CCOC(=O)C1=C(COC(=O)c2ccccc2OC(F)F)NC(=O)NC1C` (stereo not drawn), the “hERG current change (%, negative = inhibition) at 1uM” value amounted to 12.8%.
